The supplement of paper PMC8728848
The list shows a part of the results.

Tests used:
Assay in all cases: glycan array binding signal (z-score within array); higher = stronger binding
Settings in all cases: glycan notation: IUPAC condensed, linker removed; mutation: R82H, R255H
Fuc(a1-2)Gal = target: Fuc(a1-2)Gal
Summary of the method: (§1)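 The binding signal is a Z-score computed within each array and averaged over linkers. Arrays of the same protein sequence at different concentrations or buffers were also averaged together. Data originate from 3228 arrays in the Consortium for Functional Glycomics database, kept only where the protein sequence was available.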

Fuc(a1-2)Gal(b1-3)GalNAc = target: Fuc(a1-2)Gal(b1-3)GalNAc
Summary of the method: as §1

[1] = target: Fuc(a1-2)Gal(b1-3)GalNAc(a1-3)[Fuc(a1-2)]Gal(b1-4)Glc
Summary of the method: as §1

[2] = target: Fuc(a1-2)Gal(b1-3)GalNAc(a1-3)[Fuc(a1-2)]Gal(b1-4)GlcNAc
Summary of the method: as §1

[3] = target: Fuc(a1-2)Gal(b1-3)GalNAc(b1-3)Gal
Summary of the method: as §1

[4] = target: Fuc(a1-2)Gal(b1-3)GalNAc(b1-3)Gal(a1-4)Gal(b1-4)Glc
Summary of the method: as §1

[5] = target: Fuc(a1-2)Gal(b1-3)GalNAc(b1-4)[Neu5Ac(a2-3)]Gal(b1-4)Glc
Summary of the method: as §1

Fuc(a1-2)Gal(b1-3)GlcNAc = target: Fuc(a1-2)Gal(b1-3)GlcNAc
Summary of the method: as §1

[6] = target: Fuc(a1-2)Gal(b1-3)GlcNAc(b1-2)Man(a1-3)[Fuc(a1-2)Gal(b1-3)GlcNAc(b1-2)Man(a1-6)]Man(b1-4)GlcNAc(b1-4)GlcNAc
Summary of the method: as §1

[7] = target: Fuc(a1-2)Gal(b1-3)GlcNAc(b1-2)Man(a1-3)[Fuc(a1-2)Gal(b1-3)GlcNAc(b1-2)Man(a1-6)]Man(b1-4)GlcNAc(b1-4)[Fuc(a1-6)]GlcNAc
Summary of the method: as §1

[8] = target: Fuc(a1-2)Gal(b1-3)GlcNAc(b1-3)Gal(b1-4)Glc
Summary of the method: as §1

[9] = target: Fuc(a1-2)Gal(b1-3)GlcNAc(b1-3)GalNAc
Summary of the method: as §1

[10] = target: Fuc(a1-2)Gal(b1-3)GlcNAc(b1-3)[Fuc(a1-2)Gal(b1-3)GlcNAc(b1-6)]GalNAc
Summary of the method: as §1

[11] = target: Fuc(a1-2)Gal(b1-3)GlcNAc(b1-3)[Gal(b1-4)GlcNAc(b1-6)]Gal(b1-4)Glc
Summary of the method: as §1

[12] = target: Fuc(a1-2)Gal(b1-3)GlcNAc(b1-3)[Neu5Ac(a2-6)Gal(b1-4)GlcNAc(b1-6)]Gal(b1-4)Glc
Summary of the method: as §1

[13] = target: Fuc(a1-2)Gal(b1-3)GlcNAc6S
Summary of the method: as §1

[14] = target: Fuc(a1-2)Gal(b1-3)[Fuc(a1-4)]GlcNAc
Summary of the method: as §1

[15] = target: Fuc(a1-2)Gal(b1-3)[Fuc(a1-4)]GlcNAc(b1-2)Man(a1-3)[Fuc(a1-2)Gal(b1-3)[Fuc(a1-4)]GlcNAc(b1-2)Man(a1-3)]Man(b1-4)GlcNAc(b1-4)GlcNAc
Summary of the method: as §1

[16] = target: Fuc(a1-2)Gal(b1-3)[Fuc(a1-4)]GlcNAc(b1-2)Man(a1-3)[Fuc(a1-2)Gal(b1-3)[Fuc(a1-4)]GlcNAc(b1-2)Man(a1-6)]Man(b1-4)GlcNAc(b1-4)[Fuc(a1-6)]GlcNAc(b1-4)[Fuc(a1-6)]GlcNAc
Summary of the method: as §1

[17] = target: Fuc(a1-2)Gal(b1-3)[Fuc(a1-4)]GlcNAc(b1-3)[Fuc(a1-3)[Gal(b1-4)]GlcNAc(b1-6)]Gal(b1-4)Glc
Summary of the method: as §1

[18] = target: Fuc(a1-2)Gal(b1-3)[Fuc(a1-4)]GlcNAc(b1-3)[Gal(b1-4)GlcNAc(b1-6)]Gal(b1-4)Glc
Summary of the method: as §1

[19] = target: Fuc(a1-2)Gal(b1-4)Fuc(a1-3)]GlcNAc(b1-2)Man(a1-3)[Fuc(a1-2)Gal(b1-4)[Fuc(a1-3)]GlcNAc(b1-2)Man(a1-6)]Man(b1-4)GlcNAc(b1-4)GlcNAc
Summary of the method: as §1

Fuc(a1-2)Gal(b1-4)Glc = target: Fuc(a1-2)Gal(b1-4)Glc
Summary of the method: as §1

Fuc(a1-2)Gal(b1-4)Glc6S = target: Fuc(a1-2)Gal(b1-4)Glc6S
Summary of the method: as §1

Fuc(a1-2)Gal(b1-4)GlcNAc = target: Fuc(a1-2)Gal(b1-4)GlcNAc
Summary of the method: as §1

[20] = target: Fuc(a1-2)Gal(b1-4)GlcNAc(b1-2)Man
Summary of the method: as §1

[21] = target: Fuc(a1-2)Gal(b1-4)GlcNAc(b1-2)Man(a1-3)[Fuc(a1-2)Gal(b1-4)GlcNAc(b1-2)Man(a1-6)]Man(b1-4)GlcNAc(b1-4)GlcNAc
Summary of the method: as §1

[22] = target: Fuc(a1-2)Gal(b1-4)GlcNAc(b1-2)Man(a1-3)[Fuc(a1-2)Gal(b1-4)GlcNAc(b1-2)Man(a1-6)]Man(b1-4)GlcNAc(b1-4)[Fuc(a1-6)]GlcNAc
Summary of the method: as §1

[23] = target: Fuc(a1-2)Gal(b1-4)GlcNAc(b1-2)[Fuc(a1-2)Gal(b1-4)GlcNAc(b1-4)]Man(a1-3)[Fuc(a1-2)Gal(b1-4)GlcNAc(b1-2)Man(a1-6)]Man(b1-4)GlcNAc(b1-4)GlcNAc
Summary of the method: as §1

[24] = target: Fuc(a1-2)Gal(b1-4)GlcNAc(b1-3)Gal(b1-4)GlcNAc
Summary of the method: as §1

B1: Gal 8 (Mus musculus), Q9JL15 (protein)
chain: MGGSHHHHHHGMASMLSLNNLQNIIYNPIIPYVGTITEQLKPGSLIVIRGHVPKDSERFQVDFQLGNSLKPRADVAFHFNPHFKRSSCIVCNTLTQEKWGWEEITYDMPFRKEKSFEIVFMVLKNKFQVAVNGRHVLLYAHRISPEQIDTVGIYGKVNIHSIGFRFSSASALPHTLGDLQSMETSALGLTQINRENIQKPGKLQLSLPFEARLNASMGPGRTVVIKGEVNTNARSFNVDLVAGKTRDIALHLNPHLNVKAFVRNSFLQDAWGEEERNITCFPFSSGMYFEMIIYCDVREFKVAINGVHSLEYKHRFKDLSSIDTLSVDGDIRLLDVRSW
Fuc(a1-2)Gal
  glycan array binding signal (z-score): -0.23
Fuc(a1-2)Gal(b1-3)GalNAc
  glycan array binding signal (z-score): -0.218
[1]
  glycan array binding signal (z-score): -0.263
[2]
  glycan array binding signal (z-score): -0.226
[3]
  glycan array binding signal (z-score): -0.165
[4]
  glycan array binding signal (z-score): -0.23
[5]
  glycan array binding signal (z-score): -0.246
Fuc(a1-2)Gal(b1-3)GlcNAc
  glycan array binding signal (z-score): -0.245
[6]
  glycan array binding signal (z-score): -0.097
[7]
  glycan array binding signal (z-score): -0.183
[8]
  glycan array binding signal (z-score): -0.259
[9]
  glycan array binding signal (z-score): -0.247
[10]
  glycan array binding signal (z-score): -0.223
[11]
  glycan array binding signal (z-score): 1.15
[12]
  glycan array binding signal (z-score): -0.271
[13]
  glycan array binding signal (z-score): -0.227
[14]
  glycan array binding signal (z-score): -0.249
[15]
  glycan array binding signal (z-score): -0.083
[16]
  glycan array binding signal (z-score): -0.216
[17]
  glycan array binding signal (z-score): -0.273
[18]
  glycan array binding signal (z-score): -0.275
[19]
  glycan array binding signal (z-score): -0.104
Fuc(a1-2)Gal(b1-4)Glc
  glycan array binding signal (z-score): -0.211
Fuc(a1-2)Gal(b1-4)Glc6S
  glycan array binding signal (z-score): -0.187
Fuc(a1-2)Gal(b1-4)GlcNAc
  glycan array binding signal (z-score): -0.253
[20]
  glycan array binding signal (z-score): -0.192
[21]
  glycan array binding signal (z-score): -0.257
[22]
  glycan array binding signal (z-score): -0.135
[23]
  glycan array binding signal (z-score): -0.162
[24]
  glycan array binding signal (z-score): -0.264
